Experimental data from PubChem BioAssay AID488969 (Vanderbilt High Throughput Screening Facility, 2010).
Whole data set: some 110,000 compounds, median “z-score” near -0.1, cut for the highest 2% near 2. The list shows a part of the results.

Each compound was assayed against Metabotropic glutamate receptor 8 (Rattus norvegicus) (UniProt P70579) (assay: rat mGluR8 modulators via GIRK flux, primary screen, cell-based, thallium flux, HTS (AID 488969)). Settings: HEK293 rat mGluR8, GIRK (G protein-gated inwardly rectifying potassium channel) thallium flux, FluoZin2; at 10 µM; stronger effect = higher value; submaximal glutamate (EC20) added with thallium.
Sequence of UniProt P70579 (P70579 whole entry, looked up): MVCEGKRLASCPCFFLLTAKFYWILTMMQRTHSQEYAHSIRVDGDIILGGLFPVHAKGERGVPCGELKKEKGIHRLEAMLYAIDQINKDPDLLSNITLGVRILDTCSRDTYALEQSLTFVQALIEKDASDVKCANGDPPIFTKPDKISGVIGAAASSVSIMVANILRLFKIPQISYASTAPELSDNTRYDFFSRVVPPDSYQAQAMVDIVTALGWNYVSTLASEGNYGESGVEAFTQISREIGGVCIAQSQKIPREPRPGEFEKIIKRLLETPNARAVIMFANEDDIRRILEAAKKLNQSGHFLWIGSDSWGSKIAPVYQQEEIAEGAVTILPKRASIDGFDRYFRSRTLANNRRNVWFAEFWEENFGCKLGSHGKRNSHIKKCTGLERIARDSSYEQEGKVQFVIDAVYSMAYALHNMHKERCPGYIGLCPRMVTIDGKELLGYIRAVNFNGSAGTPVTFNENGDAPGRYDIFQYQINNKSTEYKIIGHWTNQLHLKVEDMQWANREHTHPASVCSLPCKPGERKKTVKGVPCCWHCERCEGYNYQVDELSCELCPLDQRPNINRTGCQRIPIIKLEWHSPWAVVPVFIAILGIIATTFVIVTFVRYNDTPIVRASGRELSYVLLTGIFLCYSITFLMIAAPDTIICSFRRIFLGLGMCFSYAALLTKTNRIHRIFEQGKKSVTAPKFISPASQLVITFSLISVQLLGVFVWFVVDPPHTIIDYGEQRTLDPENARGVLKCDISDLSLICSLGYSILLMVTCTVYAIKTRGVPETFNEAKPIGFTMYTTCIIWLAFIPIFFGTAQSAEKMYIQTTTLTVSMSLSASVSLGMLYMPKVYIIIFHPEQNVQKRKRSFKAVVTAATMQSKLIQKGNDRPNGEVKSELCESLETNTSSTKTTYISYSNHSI
In the case of `COc1cc(C(=O)O)ccc1OC(C)=O`, the z-score is reported as -1.37. Compound `O=C(O)CCCCCNC(=O)c1ccc(Br)cc1` has a z-score of 0.224. With `N#CCOC(=O)c1sccc1-n1cccc1` the z-score was -0.0708. With `O=C(CCc1nc(-c2ccccc2F)no1)NCc1ccco1` the z-score was 0.00484. For `CCOc1ccc(NC(=O)COC(=O)c2ncc(Cl)c(Cl)c2Cl)cc1`, the z-score was -0.271. Compound `COc1cc(OC)cc(OCC(O)Cn2cnc(-c3ccccc3)c2)c1` (stereo not given) has a z-score of 0.0129. For `Cc1[nH]c2ccccc2c1/C=N/NC(=O)c1cccc(S(=O)(=O)Nc2ccccc2Cl)c1`, the z-score was -0.545. Work on `CCc1nnc(NCC(=O)N2CCc3ccccc32)s1` yielded a z-score of -0.963. With `COc1ccccc1C(=O)Nc1cc2cc(Br)ccc2oc1=O` the z-score was 0.255. `O=C1CC(N2CCC(O)CC2)C(=O)N1c1ccc(Br)cc1` (stereo not given) showed a z-score of -0.0798. Work on `COc1ccc(C(=O)OCC(=O)NCc2ccc3c(c2)OCO3)cc1[N+](=O)[O-]` yielded a z-score of -0.193. With `O=C1CC(C(=O)Nc2ccc(Cl)cc2[N+](=O)[O-])C2(CCCCC2)O1` (stereo not given) the z-score was -0.203. In the case of `O=[N+]([O-])c1ccc(Cl)c(/C=N/N2CCN(Cc3ccc(Cl)cc3)CC2)c1`, the z-score is reported as 0.401. With `CC1CCCCC1NC(=O)CSc1nnc(COc2ccccc2Cl)o1` (stereo not given) the z-score was -0.148. Work on `CCCCC(=O)Nc1ccc(C(=O)NNC(=O)CCCOc2ccc(Cl)cc2Cl)cc1` yielded a z-score of -0.184. `CC1(C)CC(=O)C(C(C2=C(O)CC(C)(C)CC2=O)c2ccc([N+](=O)[O-])cc2)C(=O)C1` (stereo not given) was tested, and the z-score was 0.238. `COc1ccc(CCNC(=O)CN(C2CCCCC2)S(C)(=O)=O)cc1OC` showed a z-score of -0.37. `Cc1ccc(Nc2nc(CSc3nnc(-c4ccncc4)n3-c3ccccc3C)cs2)cc1` was tested, and the z-score was -0.034. Work on `CCOC(=O)c1ccccc1NC(=O)c1nc2nccc(C)n2n1` yielded a z-score of -0.445. For `FC(F)Sc1ccc(-n2cc(-c3ccc(Cl)cc3)[n+]3c2CCC3)cc1`, the z-score was 0.00901. With `COC(=O)c1c(/N=C/N(C)C)sc2c1CCN(c1ncc(C(F)(F)F)cc1Cl)C2` the z-score was -0.0857. With `C=CCc1c(C)nc(-c2ccccc2)nc1Nc1ccccc1O` the z-score was -0.183. `COC(=O)C1CN(S(=O)(=O)c2ccccc2)CCN1S(=O)(=O)c1ccccc1` (stereo not given) gave a z-score of -0.636. `FC(F)(F)c1cccc(NC(=S)NC2CCCC2)c1` was tested, and the z-score was 1.26. `Cc1cc(N)n2ncc(-c3ccc(Cl)cc3)c2n1` showed a z-score of 0.0522. `COc1ccc(S(=O)(=O)Nc2ccc3oc(C)c(C(=O)O)c3c2)cc1` was tested, and the z-score was -1.25. `NC(=O)c1cc2ccccc2o/c1=N\NC(=O)c1ccco1` showed a z-score of -0.236. Compound `O=C(CCCOc1ccccc1)n1nnc2ccccc21` has a z-score of -0.21. Work on `O=C(O)C1CCCCC1C(=O)NCCC(c1ccccc1)c1ccccc1` (stereo not given) yielded a z-score of -0.0345. Work on `CC(/C=C1\SC(=O)N(CC(=O)Nc2ccc(O)cc2)C1=O)=C\c1ccccc1` yielded a z-score of -0.378. For `Cc1cccc(NC(=O)CNC(=O)COc2ccc(C(=O)c3ccc(F)cc3)cc2)c1C`, the z-score was -0.158. In the case of `Cc1cc(C)cc(N(CC(=O)N2CCc3ccccc32)S(=O)(=O)c2c(C)noc2C)c1`, the z-score is reported as 0.0867. For `Cc1nc2ccc(N=NC3=C(O)CC(C)(C)CC3=O)cc2s1`, the z-score was 0.18. In the case of `CCN(CC(=O)Nc1ccc(OC)c(OC)c1)S(=O)(=O)c1ccc(C)cc1`, the z-score is reported as 0.404. Compound `Cc1csc(NC(=O)c2ccc(C)o2)n1` has a z-score of -0.297. `COc1ccc(C2CC(=O)C(C=NCCCN3CCOCC3)=C(O)C2)cc1` (stereo not given) showed a z-score of 0.896. With `COc1ccccc1/C=C\C=N\NC(=O)CCn1nnc2ccccc21` the z-score was -0.0445. `COC(=O)c1cc(CNC(=O)c2ccccc2Cl)ccc1OC` gave a z-score of -0.349. In the case of `CN1C2C=C3C(C#N)=C(N)C(C#N)(C#N)[C@@H](c4cccs4)C3C1CC2` (stereo not given in full), the z-score is reported as 2.54. For `CCOCCCNC(=O)C1c2ccccc2C(=O)N2CCc3ccccc3C12` (stereo not given), the z-score was -0.66. With `CCOC(=O)C1=C(C)NC(SC)=NC1c1ccccc1` (stereo not given) the z-score was -0.897. In the case of `CCN1CC2CCCC3(C1)C(=O)NC1(CCCCC1)N=C23` (stereo not given), the z-score is reported as -0.0467. Compound `O=c1[nH]c2ccc(S(=O)(=O)N3CCCCC3)cc2[nH]c1=O` has a z-score of -0.0803. `Oc1ccc(N=C/C=C/c2cccc(Br)c2)cc1-c1nc2ccccc2s1` showed a z-score of -0.257. For `NC(=O)c1ccccc1NS(=O)(=O)c1cccs1`, the z-score was -0.123. With `COc1ccc(-c2nn(-c3ccccc3)cc2C(=O)Nc2nc(CC(C)=O)ns2)cc1` the z-score was -0.926. Work on `Cc1ccc(CNC(=O)/C=C/c2c(Cl)cccc2Cl)cc1` yielded a z-score of -0.641. Work on `O=C(CN1CCc2ccccc2C1)Nc1ccc(Br)cc1` yielded a z-score of -0.0264. Compound `CC(=O)c1ccc(NC(=O)Oc2ccccc2)cc1` has a z-score of 0.12. Compound `COc1ccc(NC(=O)c2nnn(Cc3ccc(SC)cc3)c2N)c(OC)c1` has a z-score of -0.796. `Cc1nn(-c2ccccc2)c(N2CCCC2)c1/C=N/NC(=S)Nc1ccccc1C(F)(F)F` was tested, and the z-score was 0.583. `CC(C(=O)N1CCC(C(N)=O)CC1)N(c1ccc(Oc2ccccc2)cc1)S(C)(=O)=O` (stereo not given) gave a z-score of -0.0832. `O=C(O)CC(c1ccccc1)n1cnnn1` (stereo not given) showed a z-score of 0.165. `COC(C(=O)Nc1ccc(F)c(F)c1)c1ccccc1` (stereo not given) was tested, and the z-score was -0.336. In the case of `COc1ccc(C)cc1NC(=O)CN1CCN(S(=O)(=O)c2ccc(C(C)C)cc2)CC1`, the z-score is reported as 0.0553. `O=C(Nc1nncs1)C1(c2ccccc2)CCCC1` was tested, and the z-score was -0.359. `CCCc1oc(C(=O)O)cc1CN1CCCC1` showed a z-score of -0.285. Work on `CC(C)Nc1nc(NC(C)C)nc(C(=O)OCCO)n1` yielded a z-score of -0.00568. Compound `COc1cc(COc2ccc3c(C)c(Cc4ccccc4)c(=O)oc3c2C)cc(OC)c1OC` has a z-score of -0.127. `COc1cc(OC)cc(C(=O)N[C@H](C(=O)OCC(=O)c2ccc3c(c2)NC(=O)CO3)C(C)C)c1` showed a z-score of -0.114. `CCC(Sc1n[nH]c(=O)[nH]c1=O)C(=O)OCc1ccccc1` (stereo not given) was tested, and the z-score was 0.193. `CC(C)C(O)P(=O)(OCc1ccccc1)c1ccc(N(C)C)cc1` (stereo not given) gave a z-score of 0.127. `Cc1nn(Cc2ccc(C(=O)Nc3ccccc3C(F)(F)F)o2)c(C)c1Br` showed a z-score of 1.06. `Cc1ccc(-n2c(=O)c(C#N)cc3c(=O)n4ccccc4nc32)cc1C` was tested, and the z-score was -0.323. `FC(F)(F)c1ccc(N2CCOCC2)c(Nc2nc3ccccc3n3cnnc23)c1` was tested, and the z-score was -1.75. Compound `Cc1ccc(NN=C2c3ccccc3-c3ccccc32)cc1` has a z-score of 0.283. Compound `Cc1cc(NC(=O)CSc2ccc(-c3nc4cc(C)c(C)cc4[nH]3)cn2)no1` has a z-score of -2.57. In the case of `Cc1nnc(SCc2cc(=O)oc3ccc4ccccc4c23)n1Cc1ccccc1`, the z-score is reported as -0.192. In the case of `CCOC(=O)c1cc2c(n(-c3ccccc3)c1=O)CC(C)(C)CC2=O`, the z-score is reported as 0.207. Compound `NC1=NC(=O)/C(=C/c2cn(CCC(=O)O)nc2-c2ccc(F)cc2)S1` has a z-score of -0.412.
